Measurements from the RNAGym collection of RNA variant scans (doi:10.7554/elife.90254).
Read counts are not given, so values of variants with three or more changes are uncertain.

B1: LINE1-mini (parent)
chain: GGCAGAGCUCAACACAGCGUGGCAAAGUGGCUGUGGCUAGACUGCC

Variants of: B1
Assay: self-cleavage, relative activity (ratio to wild type); higher = more cleavage; in vitro, sequencing; the parent is a self-cleaving ribozyme

Variant | self-cleavage
A16U A26C G27U | 0.1
G1U A12G A26U | 0.02
G5C C18U C45G | 0.01
C3U U28G G33A | 0.03
A4U A11C C18A U20G G33C | 0.01
C8A A12U G27A | 0.14
C8A A11G C13A U43C | 0.02
A6U C8U G33C C37A | 0.05
G1U A11U C18A G22A U43A | 0
G1C A4C G22U | 0.04
G17A G22A A24C U32G U38A | 0.1
A12C A24G G35U G40C | 0.01
G2A G5A G7C G29A C31U | 0.18
C3U A12U C13A G36C | 0.21
G1A G17C C37A C42G C46U | 0.03
G7U G27U G44U | 0.04
U9C U28G C42A | 0.02
A12U G27C G33A G36A | 0.08
G22U G27A C46A | 1.62
A6U C8U C10A C13A G19U | 0.01
G5A A26U G35C A39C | 0.2
G7C A11C G40U C46A | 0.06
A4G A11C C13U C23G A26C | 0.04
C18U U28C G30C G35U | 0.06

Variant | self-cleavage
C8U A12C U28G | 0.02
C3G G7A A25C G27U | 0.08
C10G A26C C46A | 0.04
G7U C23A G35A C46A | 0.31
G1A C13U A25G G29A U43G | 0.04
C15A A16U A26C G35C | 0.03
G2C A12U G29U | 0.3
C13G A16U C31U C45U | 0
C10U A12C C23U | 0.01
C3A C8U U9C C10G G19U C42U | 0.01
G19A C23G C37A | 0.03
C10A A11C G17U | 0.05
G2U C10G C23G A25C | 0.02
A6G C13A U20A | 0.22
U20A C23G G27U | 1.5
G2U C10A A12U C13G | 0.02
C10A A16C G35U | 0.01
A4U A14C A25C | 0.06
A12G G35A A39G | 0.03
G1C A4G A14C C46U | 0.04
G5U G22U C42A | 0.3
A4G A14G G21U C23U U43A | 0.06
G2A A11C C13U | 0.07
G7A C8U U20G | 0.15

Variant | self-cleavage
A6U U28A G29U U38G | 0
G17U C23G G40U | 0.03
G2U C3U U9C A14C | 0.04
G5A U9A A11C G29C | 0.05
G7U G19U A25U G29C C31G | 0.01
C15A A24C G44U | 0.02
A4G G22U C23U U28C U34G G35C G36U C46A | 0.01
G19U U32G G40A C45A | 0.02
G7A A12C G21C U32G | 0.01
C23U A26C C45A | 0.58
U20G G21U C31A G36C | 0.06
C3A A11U C15G G33C U34A | 0.04
G5U C10G G19A C42U | 0.03
A6U G7U U9G | 0.06
C8G A24G G36U | 0.11
A6U G44U C45G | 0.07
G17U G27C C45G | 0.04
G2C G7C A12C C23G | 0.07
C8A G21C U38G | 0.02
C3U G5U G17C G35U | 0.02
C15A G22C C31A | 0.04
A11G C15A A16C G19A C45U | 0.01
A24U A41U C45A | 0.62
G1U C15A A39U C42A | 0

Variant | self-cleavage
G7C U28G C45U | 0.03
A4U C8A C13A C23G A39U | 0.17
A11U A26C G36A | 0
G2C A26U G30A G36C | 0.1
G7A C10G C13A A26G C46G | 0.01
A16G G17A G19A A24U G27A | 0.29
A11C A12C A26U C37G C42A | 0
C3U G27A C46A | 0.18
A24G A25C A39U | 0.07
G27A G40C C45A | 0.05
A6U A16C U20A U34G | 0.02
U9G C13A G36A | 1.44
G1C A6C A11C G22C U38G | 0
A16G G21U A24U C31U G35A G36A | 0.02
C10A A14G A39G | 0.01
G7A G27U U38G | 0.01
U20G G30A G35C | 0.13
A4U G7U C15U | 0.04
A12G C13U G19U G29A | 0.06
G5A A6G C8G G19U G36U | 0.05
A4U G22U G27A | 0.08
A16G G17C A25U U28C U32C | 0.52
A6U C23A G30A | 1.97
A16U G30U C31U | 0.02

Variant | self-cleavage
C3U A16C G30C G40C C46A | 0.04
G5A A24G G35C | 0.05
A11C G40U C46G | 0
G17C G22U C31U U34C G40A C45G | 0.02
G17A A25G U38G | 0.01
A11U C13A C18U | 0.03
G1U A4U A16U C23U C46A | 0.04
A16C U38C C45A | 0.03
C37G A41G C45U | 0.04
C23U G27U C42G G44C | 0.02
G2U C8G U9A G21U | 0.01
G2C U20G U28A C45U | 0.01
A6G G7A U38A | 0.03
G19C U38C A41G | 0.11
C10G C13G G30U A39C | 0.01
A26G G27C U38A | 0.27
C10U A12U C15U U34C U43G | 0.02
U9G G22C G35A | 0.06
A25G U28G G29U C37G | 0
G1A A16G C31A | 0.04
G1A A11G U28C C31U G35U | 0.05
A26U U32A C42U | 0.14
G2C C13U G17A C18U G40U | 0.05
C8U G19A A24U U38A | 0.85

Variant | self-cleavage
A6U G7C G17C U32G | 0.19
A14G C23A C45U | 0.74
C3A C8U G19U C31G | 0.15
G7U U20G G22C U38A | 0.02
G5A A16G G21A G22C C46U | 0.03
A11G A12U C31G | 0.01
A12U U28C A39C C45A | 0.03
C18A A24G A25C C42U | 0.04
A11C C31G G33C | 0.03
C18U A25U A41C G44A | 0.01
G1U A4G U9G C46A | 0.03
G5A C13U G44A | 0.04
C8G C10A A14C C15A A16G | 0
G2C G44A C46A | 0.1
G1U G22U A39G | 0.03
G19U G22A G29U | 2.6
G2U A12G U20G G27U U28C G35U | 0
C13A G19A A25C A26G | 0.08
C18A G35U U43G | 0.05
C8G C10A A26C C42G U43C | 0.06
U9A U20A G40A | 0.13
A4U G7A G17C G21U G35U C37U C42A C46U | 0.19
A25U C31G G35C G40A | 0.05
A6G A41U C45G | 0.09

Variant | self-cleavage
C8A G19U G27A U28C C31G A41C | 0.03
G5C C8A C37A U38C | 0.37
C8U G21C A26U C46G | 0.09
C10A A16G G19U U34A | 0.03
C18A C23G G44U | 0.09
G5U A14U G19U U28G U32A U34A U43G G44U | 0.02
A12G U34A C42U | 0.19
A4G G33U C46A | 0.01
C3U A16C U34A C37A U38G | 0.02
G1A A25U A26G G27A C45U | 0.12
C18A U38C C45G | 0.03
A14C G36U C37U | 0
G19U U20A G36U | 0.03
G1U A12G G40A | 0.02
G1C C3U G22U U43G C46U | 0.01
G7A C15U G27U G44U | 1.07
G5C U9A G21A C42U | 0.13
A4G A11C G33C C42A | 0.02
G2A C23U A24U C37A | 0.16
G21C G35U G40U | 0.09
G2C A25U G29U | 2.91
C3G C10U G17A A25C G29A | 0.06
C3A C13U C45G | 0.79
